The supplement of paper PMC5499739
In all, about 16,000 sequences were measured (“Z-score”: median about -0.37, highest 2% from about 3.2 on). The list shows a part of the results.

Tested on: RBM10 RRM1-ZnF (GST-tagged construct)
Assay: RNAcompete 7-mer binding Z-score; higher = stronger binding preference
Outline: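 GST-tagged RBM10 constructs (20 pmol) were mixed with a designed pool of 241 399 RNAs up to 41 nt (1.5 nmol), transcribed from microarray-derived DNA templates. Mixing was in 1 ml Hepes pH 7.8 buffer with KCl, NaCl, glycerol, DTT, BSA and glutathione Sepharose beads. Binding ran 30 min at 4°C, followed by four 2-min washes at 4°C, and bound RNA was identified by microarray hybridisation. Each heptamer motif received a one-sided Z-score for enrichment across probes containing it.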

Point of comparison: AUCACGG, “RNAcompete 7-mer binding Z-score” value 0.03. Against it:
- CGCCGCC — lower, -0.467
- UUUGGCG — higher, 0.209
- AACGGAU — higher, 1.58
- GCGAGGG — higher, 3.54
- CCAUGAA — lower, -0.467
- CUAAUGU — lower, -0.529
- GGCUGCU — higher, 0.183
- CACCGAC — lower, -0.409
- AAUUAAA — lower, -0.565
- UAGUGCU — lower, -0.292
- GAGAACU — lower, -0.158
- UCUAUCC — lower, -0.831
- UGAAACC — lower, -0.668
- GUAAUCC — lower, -0.431
- GGUUAGA — higher, 2.79
- GGGACUU — higher, 1.03
- CGGGUCG — higher, 1.54
- UAAUCAC — lower, -0.448
- ACGUUCA — lower, -0.733
- CGCGUAC — lower, -0.659
- UUGAGCA — lower, -0.155
- CCCGGCA — lower, -0.467
- CACCAUC — lower, -0.678
- AUAAAAG — higher, 0.0788
- GUAGAAG — higher, 2.54
- GCCUGGA — lower, -0.246
- AACCACG — lower, -0.516
- GCCUAAG — lower, -0.383
- AAGCCUG — lower, -0.629
- CGCAAGA — lower, -0.464
- UGCGAAA — lower, -0.0934
- GCGAACA — lower, -0.0707
- CAGCGGG — higher, 2.5
- CGCACGG — higher, 0.0885
- CUAACGG — higher, 0.235
- CUUGUGU — lower, -0.594
- CCGUAGG — higher, 0.508
- CAUCGUC — lower, -0.681
- CGAAAAA — lower, -0.431
- CUCUAAG — lower, -0.532
- CAGGCUA — higher, 0.244
- CGGCAAU — lower, -0.22
- AAGGCUA — higher, 0.566
- GAGCACA — lower, -0.253
- UGCAUCC — lower, -0.759
- UGUCGAU — lower, -0.519
- UCACAUG — lower, -0.405
- UACUCAC — lower, -0.704
- UGGGUUA — higher, 3.28
- GCGGGAU — higher, 2.2
- AACACUA — lower, -0.496
- AGAUAUG — higher, 0.686
- AAAACCU — lower, -0.743
- UAGUCCC — lower, -0.594
- UCCUAUU — lower, -0.867
- AUUUUGA — lower, -0.714
- CUUUUAG — lower, -0.688
- UUAGCGU — lower, -0.324
- UCAUAGU — lower, -0.402
- CCUCCGA — lower, -0.662
- AGUCAAG — higher, 0.147
- UGUAGGC — higher, 0.553
- GAUUUUC — lower, -0.737
- CCCCGGG — higher, 0.647
- CACGGCC — lower, -0.655
- GGACCAU — lower, -0.373
- UUGAUAC — lower, -0.35
- ACAAAUC — lower, -0.662
- AGCACAC — lower, -0.642
- UCAUUCU — lower, -0.662
- CCCGUCG — lower, -0.467
- ACAUUCU — lower, -0.876
- CCCGCUC — lower, -0.552
- CCCAAGA — lower, -0.568
- CAGCCCA — lower, -0.379
- AACAAAC — lower, -0.435
- UUGUCGC — lower, -0.558
- AGCCGUG — lower, -0.444
- AGUGAGG — higher, 2.62
- AAAGUUC — lower, -0.578
- AACGGAA — higher, 1.44
- UUCUGCG — lower, -0.594
- UUUCUUC — lower, -0.779
- UUGGCUA — lower, -0.0414
- UCGGGGA — higher, 1.6
- UUCUCCA — lower, -0.785
- GUAGAUC — higher, 0.0398
- UAAUUGG — higher, 0.706
- CUCAAUA — lower, -0.802
- GUGCCCC — the same, 0.03
- AAGUGGC — higher, 0.664
- AUAGCUC — lower, -0.493
- GAACCGA — lower, -0.24
- GUUUGUU — lower, 0.017
- CCGUAUG — lower, -0.529
- GUUCAAA — lower, -0.399
- GGGCCAU — lower, -0.0902
- UACUCCC — lower, -0.785
- UUCCAUG — lower, -0.756
- GGCGCCC — lower, -0.34
- CAGAUGA — lower, -0.0187
- AUUAGCG — lower, -0.0902
- CGAUUAA — lower, -0.48
- GUGCGUA — higher, 0.511
- GCGUACA — lower, -0.0609
- GGUCACC — higher, 0.108
- UAGGCCA — lower, -0.162
- CGAAGGA — higher, 1.62
- AUGUCAC — lower, -0.509
- UGAGGGC — higher, 2.27
- AGAGCGA — higher, 0.586
- UCCGACC — lower, -0.776
- GGUCCCC — higher, 0.043
- GUUGGGU — higher, 3.12
- GCUAACC — lower, -0.646
- ACAAUGC — lower, -0.461
- CGUGCUC — lower, -0.584
- CAGGCUC — lower, -0.318
- GAGAGUC — higher, 0.225
- ACCCCAU — lower, -0.662
- AAUACGG — higher, 0.94
- CAAUCGA — lower, -0.477
- GCCGCCG — lower, -0.36
- AAGGCAG — higher, 1.74
- GGAGGAG — higher, 2.93
- CGAAUAU — lower, -0.685
- GGUAUGA — higher, 2.19
- AGUAAGC — lower, 0.0105
- CUUCAUA — lower, -0.847
- ACGUAUG — lower, -0.0252
- CCCACAA — lower, -0.535
- CUCUGCU — lower, -0.789
- AAACUCC — lower, -0.685
- UCUACGA — lower, -0.617
- UGACCAA — lower, -0.37
- GCACGAU — higher, 0.0918
- CGCCCCC — lower, -0.35
- AUCCGGA — lower, -0.435
- UGCAAAG — higher, 0.244
- UUGACAU — lower, -0.467
- UAAGGUG — higher, 2.16
- CGUCCUG — lower, -0.467
- UGCGAUA — lower, -0.223
- GCACAGG — higher, 1.19
- CACGCUG — lower, -0.0155
- GACCACC — lower, -0.483
- AGAGCAA — lower, -0.0479
- CGAUUGU — lower, -0.435
- CAAUGUA — lower, -0.126
- UCCAACU — lower, -0.85
- AGGGCUA — higher, 1.13
- CGUAUUU — lower, -0.769
- UCGUGUU — lower, -0.652
- CGGUGGG — higher, 3.2
- CUUAGCG — lower, -0.704
- CGAGGGA — higher, 2.84
- AAGCCUA — lower, -0.759
- AUACUAC — lower, -0.672
- AGGGUUA — higher, 3.55
- CGAGUGC — lower, -0.0414
- CCCCGUA — lower, -0.402
- GAAAUUU — lower, -0.418
- CUUGUAU — lower, -0.72
- GACUCGA — lower, -0.5
- CGAGGAC — higher, 0.501
- GGGGACG — higher, 2.55
- UAUCAAU — lower, -0.652
- UGAGCAU — lower, -0.0999
- AAGUGAU — higher, 0.459
- AGGGCUC — higher, 0.0983
- AUCGUAG — lower, -0.275
- GUAUCUG — lower, -0.532
- AGCGACG — higher, 0.478
- GGAUGGU — higher, 3.9
- AGUACGC — lower, -0.49
- UGCAGUG — higher, 0.215
- UAUUCAC — lower, -0.678
- CUUUAGG — lower, -0.36
- CCAAGAU — lower, -0.766
- AAAGGGG — higher, 4.5
- ACCGUCC — lower, -0.772
- AACUAUG — lower, -0.402
- UCUCUGU — lower, -0.782
- CAUCUCU — lower, -0.896
- GUAUAAG — higher, 0.833
- CAAUGGU — higher, 0.862
- UCAAGGU — higher, 0.683
- CGCGUAU — lower, -0.399
- GCUUGAG — lower, -0.0382
- UUACCAG — lower, -0.597
- ACGUGGC — the same, 0.03
- ACCGGCU — lower, -0.626
- CCAAGCU — lower, -0.802
- UAUUGGG — higher, 2.33
- UGAUUGU — lower, -0.305
- CCGCACU — lower, -0.604
- GGCUGGG — higher, 2.33
- UCUGUUG — lower, -0.558
- GCAUUGA — lower, 0.017
- UUUCUGC — lower, -0.831
- GCAUCUC — lower, -0.629
- UCGCGAA — lower, -0.581
- UUAACUA — lower, -0.578
- ACUUAUC — lower, -0.717
- UCGCAAG — lower, -0.457
- UUCCUUA — lower, -0.837
- CGUAUGU — lower, -0.347
- GUCUAAG — lower, -0.292
- AGCCCAA — lower, -0.597
- ACGACAU — lower, -0.337
- CUAACAC — lower, -0.75
- CUUCGGG — higher, 0.248
- CCUUGGG — higher, 0.283
- UACCGCC — lower, -0.694
- ACGUCGU — lower, -0.327
- CCAGCUU — lower, -0.711
- AUAUUGU — lower, -0.402
- AGCAAGG — higher, 2.66
- UCGCUUG — lower, -0.743
- AUCCCAA — lower, -0.802
- CAUAAGC — lower, -0.714
- CUGACCU — lower, -0.932
- UCAAACC — lower, -0.86
- CAGCUCG — lower, -0.704
- CUCGUGU — lower, -0.526
- GCAUCAA — lower, -0.464
- UUGUUAG — lower, -0.0804
- GUGUUCA — lower, -0.22
- CCCGCGU — lower, -0.444
- CGAUCGA — lower, -0.262
- CGGCUAA — lower, -0.201
- UUAGCUC — lower, -0.678
- UCAAAGA — lower, -0.399
